Assay results reported in the supplement of paper PMC8728848.
The other results are listed elsewhere or left out.

Experiments:
Assay in all cases: glycan array binding signal (z-score within array); higher = stronger binding
Details in all cases: glycan notation: IUPAC condensed, linker removed
[1] = molecular target: Gal(b1-4)GlcNAc(b1-3)Gal(b1-4)[Fuc(a1-3)]GlcNAc(b1-3)Gal(b1-4)[Fuc(a1-3)]GlcNAc
Summary of the method: (§1)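 Glycan array binding is given as a within-array Z-score, which can be read as non-binding when negative. The arrays, 3228 of them, came from the Consortium for Functional Glycomics database and were retained only where the protein sequence was available. Z-scores were averaged across arrays of the same protein sequence at different concentrations or buffers and across linkers.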

[2] = molecular target: Gal(b1-4)GlcNAc(b1-3)GalNAc
Summary of the method: as §1

[3] = molecular target: Gal(b1-4)GlcNAc(b1-3)[Gal(b1-4)GlcNAc(b1-6)]Gal(b1-4)GlcNAc
Summary of the method: as §1

[4] = molecular target: Gal(b1-4)GlcNAc(b1-3)[Gal(b1-4)GlcNAc(b1-6)]GalNAc
Summary of the method: as §1

[5] = molecular target: Gal(b1-4)GlcNAc(b1-3)[GlcNAc(b1-6)]Gal(b1-4)GlcNAc
Summary of the method: as §1

[6] = molecular target: Gal(b1-4)GlcNAc(b1-6)Gal(b1-4)GlcNAc
Summary of the method: as §1

[7] = molecular target: Gal(b1-4)GlcNAc(b1-6)GalNAc
Summary of the method: as §1

[8] = molecular target: Gal(b1-4)GlcNAc(b1-6)[Gal(b1-3)]GalNAc
Summary of the method: as §1

Gal3S(b1-3)GalNAc = molecular target: Gal3S(b1-3)GalNAc
Summary of the method: as §1

Gal3S(b1-3)GlcNAc = molecular target: Gal3S(b1-3)GlcNAc
Summary of the method: as §1

[9] = molecular target: Gal3S(b1-3)[Fuc(a1-4)]GlcNAc
Summary of the method: as §1

Gal3S(b1-4)Glc = molecular target: Gal3S(b1-4)Glc
Summary of the method: as §1

Gal3S(b1-4)Glc6S = molecular target: Gal3S(b1-4)Glc6S
Summary of the method: as §1

Gal3S(b1-4)GlcNAc = molecular target: Gal3S(b1-4)GlcNAc
Summary of the method: as §1

Gal3S(b1-4)GlcNAc6S = molecular target: Gal3S(b1-4)GlcNAc6S
Summary of the method: as §1

[10] = molecular target: Gal3S(b1-4)[Fuc(a1-3)]Glc
Summary of the method: as §1

[11] = molecular target: Gal3S(b1-4)[Fuc(a1-3)]Glc6S
Summary of the method: as §1

Gal3S4S(b1-4)GlcNAc = molecular target: Gal3S4S(b1-4)GlcNAc
Summary of the method: as §1

Gal3S6S(b1-4)GlcNAc = molecular target: Gal3S6S(b1-4)GlcNAc
Summary of the method: as §1

Gal3S6S(b1-4)GlcNAc6S = molecular target: Gal3S6S(b1-4)GlcNAc6S
Summary of the method: as §1

Gal4S(b1-4)GlcNAc = molecular target: Gal4S(b1-4)GlcNAc
Summary of the method: as §1

Gal4S6S(b1-4)GlcNAc = molecular target: Gal4S6S(b1-4)GlcNAc
Summary of the method: as §1

Gal6S(b1-4)Glc = molecular target: Gal6S(b1-4)Glc
Summary of the method: as §1

Gal6S(b1-4)Glc6S = molecular target: Gal6S(b1-4)Glc6S
Summary of the method: as §1

Gal6S(b1-4)GlcNAc = molecular target: Gal6S(b1-4)GlcNAc
Summary of the method: as §1

Gal6S(b1-4)GlcNAc6S = molecular target: Gal6S(b1-4)GlcNAc6S
Summary of the method: as §1

GalNAc(a1-3)Gal = molecular target: GalNAc(a1-3)Gal
Summary of the method: as §1

GalNAc(a1-3)GalNAc = molecular target: GalNAc(a1-3)GalNAc
Summary of the method: as §1

[12] = molecular target: GalNAc(a1-3)GalNAc(a1-3)Gal(a1-4)Gal(b1-4)GlcNAc
Summary of the method: as §1

GalNAc(b1-3)Gal = molecular target: GalNAc(b1-3)Gal
Summary of the method: as §1

[13] = molecular target: GalNAc(b1-3)Gal(a1-4)Gal(b1-4)GlcNAc
Summary of the method: as §1

[14] = molecular target: GalNAc(b1-3)Gal(a1-4)Gal(b1-4)GlcNAc(b1-3)Gal(b1-4)Glc
Summary of the method: as §1

[15] = molecular target: GalNAc(b1-3)Gal(a1-6)Gal(b1-4)Glc
Summary of the method: as §1

GalNAc(b1-3)GalNAc = molecular target: GalNAc(b1-3)GalNAc
Summary of the method: as §1

GalNAc(b1-4)GlcNAc = molecular target: GalNAc(b1-4)GlcNAc
Summary of the method: as §1

[16] = molecular target: GalNAc(b1-4)GlcNAc(b1-2)Man(a1-3)[GalNAc(b1-4)GlcNAc(b1-2)Man(a1-6)]Man(b1-4)GlcNAc(b1-4)GlcNAc
Summary of the method: as §1

Glc(a1-4)Glc = molecular target: Glc(a1-4)Glc
Summary of the method: as §1

Glc(a1-6)Glc(a1-6)Glc = molecular target: Glc(a1-6)Glc(a1-6)Glc
Summary of the method: as §1

Glc(b1-4)Glc = molecular target: Glc(b1-4)Glc
Summary of the method: as §1

Glc(b1-6)Glc = molecular target: Glc(b1-6)Glc
Summary of the method: as §1

GlcA(b1-3)Gal = molecular target: GlcA(b1-3)Gal
Summary of the method: as §1

GlcA(b1-3)GlcNAc = molecular target: GlcA(b1-3)GlcNAc
Summary of the method: as §1

GlcA(b1-6)Gal = molecular target: GlcA(b1-6)Gal
Summary of the method: as §1

[17] = molecular target: GlcNAc(a1-3)Gal(b1-4)GlcNAc
Summary of the method: as §1

[18] = molecular target: GlcNAc(a1-4)Gal(b1-3)GlcNAc
Summary of the method: as §1

B1: Gal 3 (Homo sapiens), P17931 (protein)
chain: MADNFSLHDALSGSGNPNPQGWPGAWGNQPAGAGGYPGASYPGAYPGQAPPGAYPGQAPPGAYHGAPGAYPGAPAPGVYPGPPSGPGAYPSSGQPSAPGAYPATGPYGAPAGPLIVPYNLPLPGGVVPRMLITILGTVKPNANILDFQRGNDVAFHFNPRFNENNRRVIVCNTKLDNNWGREERQSVFPFESGKPFKIQVLVEPDHFKVAVNDAHLLQYNHRVKKLNEISKLGISGDIDLTSASYTMI
With B1 the “glycan array binding signal (z-score)” value [1] was -0.258, the “glycan array binding signal (z-score)” value [2] was -0.387 and the “glycan array binding signal (z-score)” value [3] was 1.06. The “glycan array binding signal (z-score)” value [4] was -0.032, the “glycan array binding signal (z-score)” value [5] was -0.307 and the “glycan array binding signal (z-score)” value [6] was -0.389. The “glycan array binding signal (z-score)” value [7] was -0.391, the “glycan array binding signal (z-score)” value [8] was -0.389 and the “glycan array binding signal (z-score)” value (Gal3S(b1-3)GalNAc) was -0.389. The “glycan array binding signal (z-score)” value (Gal3S(b1-3)GlcNAc) was 1.02, the “glycan array binding signal (z-score)” value [9] was -0.39 and the “glycan array binding signal (z-score)” value (Gal3S(b1-4)Glc) was -0.385. For the same binder, the “glycan array binding signal (z-score)” value (Gal3S(b1-4)Glc6S) was -0.164, the “glycan array binding signal (z-score)” value (Gal3S(b1-4)GlcNAc) was 0.23 and the “glycan array binding signal (z-score)” value (Gal3S(b1-4)GlcNAc6S) was 0.983. For the same binder, the “glycan array binding signal (z-score)” value [10] was -0.39, the “glycan array binding signal (z-score)” value [11] was -0.387 and the “glycan array binding signal (z-score)” value (Gal3S4S(b1-4)GlcNAc) was -0.393. The “glycan array binding signal (z-score)” value (Gal3S6S(b1-4)GlcNAc) was -0.381, the “glycan array binding signal (z-score)” value (Gal3S6S(b1-4)GlcNAc6S) was -0.388 and the “glycan array binding signal (z-score)” value (Gal4S(b1-4)GlcNAc) was -0.391. For the same binder, the “glycan array binding signal (z-score)” value (Gal4S6S(b1-4)GlcNAc) was -0.391, the “glycan array binding signal (z-score)” value (Gal6S(b1-4)Glc) was -0.376 and the “glycan array binding signal (z-score)” value (Gal6S(b1-4)Glc6S) was -0.368. For the same binder, the “glycan array binding signal (z-score)” value (Gal6S(b1-4)GlcNAc) was -0.387, the “glycan array binding signal (z-score)” value (Gal6S(b1-4)GlcNAc6S) was -0.391 and the “glycan array binding signal (z-score)” value (GalNAc(a1-3)Gal) was -0.388. For the same binder, the “glycan array binding signal (z-score)” value (GalNAc(a1-3)GalNAc) was -0.385, the “glycan array binding signal (z-score)” value [12] was -0.391 and the “glycan array binding signal (z-score)” value (GalNAc(b1-3)Gal) was -0.39. The “glycan array binding signal (z-score)” value [13] was -0.391, the “glycan array binding signal (z-score)” value [14] was 2.01 and the “glycan array binding signal (z-score)” value [15] was -0.388. The “glycan array binding signal (z-score)” value (GalNAc(b1-3)GalNAc) was -0.388, the “glycan array binding signal (z-score)” value (GalNAc(b1-4)GlcNAc) was -0.38 and the “glycan array binding signal (z-score)” value [16] was -0.389. For the same binder, the “glycan array binding signal (z-score)” value (Glc(a1-4)Glc) was -0.391, the “glycan array binding signal (z-score)” value (Glc(a1-6)Glc(a1-6)Glc) was -0.392 and the “glycan array binding signal (z-score)” value (Glc(b1-4)Glc) was -0.387. For the same binder, the “glycan array binding signal (z-score)” value (Glc(b1-6)Glc) was -0.383, the “glycan array binding signal (z-score)” value (GlcA(b1-3)Gal) was -0.386 and the “glycan array binding signal (z-score)” value (GlcA(b1-3)GlcNAc) was -0.392. The “glycan array binding signal (z-score)” value (GlcA(b1-6)Gal) was -0.387, the “glycan array binding signal (z-score)” value [17] was -0.391 and the “glycan array binding signal (z-score)” value [18] was -0.39.
